The chains are these.
B1: LINE1-full (parent)
chain: UACGUAGGUGGUUUUCCCCUGAUAGUGCUAAGGGGGCCUGGAAGUUUGGACUGGGCAGAGCUCAACACAGCGUGGCAAAGUGGCUGUGGCUAGACUGCCUCUCUGGAUUCCUCGUCACUCAGCAGGGCAUCUCUGAGAGAAAUGCC

The source gives no read counts; variants with many changes may rest on few reads.

In this series the parent is B1. Description: self-cleavage, relative activity (ratio to wild type); higher = more cleavage; in vitro, sequencing; the parent is a self-cleaving ribozyme.
Consider UACGUAGGUGGUUUUCCCCUGAUAGUGCUAAGGGGGCCUGGGAGUUUGGACUGGGCAGAGCUCAACACAGCGUGGCAAAGUGGCUGUGGCUGGACUGCCCCUCUGGAUUCCUCGUCACUCAGCAGGGCAUCUCUGAGAGAAAUGCC [A42G A92G U100C], for which the self-cleavage is 0.
Take UACGUAGGUGGUUUUCCCCUGAUAGUGCUAAGGGGGCCUGGAGGUUAGGACUGGGCAGAGCUCAACACAGCGUGGCAAAGUGGCUGUGGCUAGACUGCCCCUCUGGAUUCCUCGUCACUCAGCAGGGCAUCUCUGAGAGAAAUGCC [A43G U47A U100C]: the self-cleavage was determined as 1.45.
Consider UACGUAGGUGGUUUUCCCCUGAUAGUGCUAAGGGGGCCGGGAAGUUUAGACUGGGCAGAGCUCGACACAGCGUGGCAAAGUGGCUGUGGCUAGACUGCCUCUCUGGAUUCCUCGUCACUCAGCAGGGCAUCUCUGAGAGAAAUGCC [U39G G48A A64G], for which the self-cleavage was determined as 0.44.
UACGUAGGUGGUUUUCCCCUGGUAGUGCUAAGGGGGCCUGGAAGUUUGGACUGGGCAGAGCUCAACACAGCGUGGCACAGUGGCCGUGGCUAGACUGCCUCUCUGGAUUCCUCGUCACUCAGCGGGGCAUCUCUGAGAGAAAUGCC [A22G A78C U85C A124G]: the self-cleavage was 0.54.
As to UACGUAGGUGGUUUUCCCCUGGUAGUGCUAAGGGGGCCUGGAAGUUUGGACUGGGCUGAGCUCAACACAGCGUGGCAAAGUGGCUGUGGCUAGACUGCCUCUCUGGAUUCCUCGUCACUCAGCAGGGCAUCUCUGAGAGAAAUGCU [A22G A57U C146U], the self-cleavage was found to be 0.11.
Take UACGUAGGUGGUUUUCCCCUGAUAGCGCUAAGGGGGCCUGGAAGUUUGGACUGGGCAGAGCUCAACACAGCGUGGCAGAGUGGCUGUGGCUAGACUGCCUCUCUGGAUUCCUCGUCACUCAGCAGGGCAUCUCUGAGGGAAAUGCC [U26C A78G A138G]: the self-cleavage was 1.59.
Turning to UACGUAUGUGGUUUUCCCCUGAUAGUGCUAAGGGGGCCUGGAAGUUUGGACUGGGCAGAGCUCAACACAGCGUGGCGAAGUGGCCGUGGCUAGACUGCCUCUCUGGAUUCCUCGUCACUCAGCAGGGCAUCUCUGAGAGAAAUGCC [G7U A77G U85C], the self-cleavage was found to be 0.48.
As to UACGUAGGUGGUUAUCCCCUGAUAGUGCUAAGGGAGCCUGGAAGUUAGGACUGGGCAGAGCUCAACACAGCGUGGCAAAGUGGCUGUGGCUAGACUGCCCCUCUGGAUUCCUCGUCACUCAGCAGGGCAUCUCUGAGAGAAAUGCC [U14A G35A U47A U100C], the self-cleavage stood at 0.62.
The figure for UACGUAGGUGGUUUUCCCCUGAUAGUGCUUAGGGGGCCUGGAAGUUUGGACUGGGCAGAGCCCAACACAGCGUGGCAAAGUGGCUGUGGCUAGACUGCCUCUCCGGAUUCCUCGUCACUCAGCAGGGCAUCUCUGAGAGAAAUGCC [A30U U62C U104C] is 0.
With UACGUAGGUGGUUUUCCCCUGAUAGUGCUAAGGGGGCCUGGGAGUUUGCACUGGGCAGAGCUCGACACAGCGUGGCAAAGUGGCUGUGGCUAGACUGCCUCUCUGGAUUCCUCGUCACUCAGCAGGGCAUCUCUGAGAGAAAUGCC [A42G G49C A64G] the figure was 0; with UACGUAGGUGGUUUUCCCCUGAUAGUGCUAAGGGGGCCCGGAAGUUUGGACUGGGCAGAGCUCAACACAGCGUGGCAAAGUGGCUGUGGCUAGACUGCCUCUCUGGAUUCCUCGUCACUCAGCAGGGCACCUCUGAGAGAAACGCC [U39C U130C U143C], 1.72; with UACGUAGGUGGUUUUCCCCUGGUAGUGCUAAGGGGGCCUGGAAGUUUGGAUUGGGCAGAGCUCAACACAGCGUGGCAAAGUGGCUGUGGCUAGACUGCCUCUCUAGAUUCCUCGUCACUCAGCAGGGCAUCUCUGAGAGAAAUGCC [A22G C51U G105A], 0.95.
As to UACGUAGGUGGUUUUCCCCUGAUAGUGCUAAGGGUGCCUGGGAGUUUGGACUGGGCAGAGCUCAACACAGCGUGGCAAAGUGGCUAUGGCUAGACUGCCUCUCUGGAUUCCUCGUCACUCAGCAGGGCAUCUCUGAGAGAAAUGCC [G35U A42G G86A], the self-cleavage is 0.09.
In the case of UACGUAGGUGGUUUUCCCCCGAUAGUGCUAAGGGGGCCUGGAAGUUUGGACUGGGCAGAGCUCAACACAGCGUGGCAAAGUGGCCGUGGCUAGUCUGCCUCUCUGGAUUCCUCGUCACUCAGCUGGGCAUCUCUGAGAGAAAUGCC [U20C U85C A94U A124U], the self-cleavage came to 0.14.
As to UACGUAGGUGGUUUUCCCCUGAUAGCGCUAAGGGGGCCUGGAAGUUUGGACUGGGCAGAGCUCAACACAGCGUGGCAAAGUGGCUUUGGCUAGACUGCCUCCCUGGAUUCCUCGUCACUCAGCAGGGCAUCUCUGAGAGAAAUGCC [U26C G86U U102C], the self-cleavage was found to be 0.09.
UACGUAGGUGGUUCUCCCCUGAUAGUGCUAAGGGGGCCUGGAAGUUUGGACUGGGCAGAGCUCAACACAGCGUGGCAAAGCGGCUGUGGCUAGACUGCCUCUCUGGAUUCCUCGUCACUCAGCAGGGCAUCCCUGAGAGAAAUGCC [U14C U81C U132C]: the self-cleavage was determined as 1.25.
As to UACGUAGGUGGUUUUCCCCUGAUAGUGCUAAGGGGGCCUGGAAGCUUGGACUGGGCAGAGCUCAACGCAGCGUGGCAAAGUGGCUGUGGCUAGACUGCCUCUCUGGAUUCCUCGUCACUCAGCAGAGCAUCUCUGGGAGAAAUGCC [U45C A67G G126A A136G], the self-cleavage came out at 0.53.
With UACGUAGGUGGUUUUCCCCUGAUAGUGCUAAGGGGGCCUGGUAGUUCGGACUGGGCAGAGCUCAACACAGCGUGGCAAAGUGGCUGAGGCUAGACUGCCUCUCUGGAUUCCUCGUCACUCAGCAGGGCAUCUCUGAGAGAAAUGCC [A42U U47C U87A], the self-cleavage was determined as 0.
On to CACGUCGGUGGCUUUCCCCUGAUAGUGCUAAGGGGGCCUGGAAGUUUGGGCUGGGCAGAGCUCAACACAGCGUGGCAAAGUGGCUGUGGCUAGACUGCCUCUCUGGAUUCCUCGUCACUCAGCAGGGCAUCUCUGAGAGAAAUGCC [U1C A6C U12C A50G], for which the self-cleavage came out at 0.43.
For the variant UACGUAGGUGGUUUUCCCCCGAUAGUGCUAAGGGGGCCUGGAAGUUUGGACUGGGCUGAGCUCAACACAGCGUGGCAAAGUGGCUGUGGCUAGACUGCCUCCCUGGAUUCCUCGUCACUCAGCAGGGCAUCUCUGAGAGAAAUGCC [U20C A57U U102C], the self-cleavage worked out at 0.08.

These data come from the RNAGym collection of RNA variant scans (doi:10.7554/elife.90254).
